From paper PMC4336329 (PLoS ONE, 2015) come the findings set out here.

In all, about 310,000 compounds went through this assay and about 14,000 (4.5%) showed an effect of 50% or more. Effects have a minus sign here. This is one part of the list.
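Further: peak tail current of the secondary pulse compared with the same well before compound.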

Sequence of human ether-à-go-go-related gene (hERG) potassium channel (Q12809 whole entry, looked up): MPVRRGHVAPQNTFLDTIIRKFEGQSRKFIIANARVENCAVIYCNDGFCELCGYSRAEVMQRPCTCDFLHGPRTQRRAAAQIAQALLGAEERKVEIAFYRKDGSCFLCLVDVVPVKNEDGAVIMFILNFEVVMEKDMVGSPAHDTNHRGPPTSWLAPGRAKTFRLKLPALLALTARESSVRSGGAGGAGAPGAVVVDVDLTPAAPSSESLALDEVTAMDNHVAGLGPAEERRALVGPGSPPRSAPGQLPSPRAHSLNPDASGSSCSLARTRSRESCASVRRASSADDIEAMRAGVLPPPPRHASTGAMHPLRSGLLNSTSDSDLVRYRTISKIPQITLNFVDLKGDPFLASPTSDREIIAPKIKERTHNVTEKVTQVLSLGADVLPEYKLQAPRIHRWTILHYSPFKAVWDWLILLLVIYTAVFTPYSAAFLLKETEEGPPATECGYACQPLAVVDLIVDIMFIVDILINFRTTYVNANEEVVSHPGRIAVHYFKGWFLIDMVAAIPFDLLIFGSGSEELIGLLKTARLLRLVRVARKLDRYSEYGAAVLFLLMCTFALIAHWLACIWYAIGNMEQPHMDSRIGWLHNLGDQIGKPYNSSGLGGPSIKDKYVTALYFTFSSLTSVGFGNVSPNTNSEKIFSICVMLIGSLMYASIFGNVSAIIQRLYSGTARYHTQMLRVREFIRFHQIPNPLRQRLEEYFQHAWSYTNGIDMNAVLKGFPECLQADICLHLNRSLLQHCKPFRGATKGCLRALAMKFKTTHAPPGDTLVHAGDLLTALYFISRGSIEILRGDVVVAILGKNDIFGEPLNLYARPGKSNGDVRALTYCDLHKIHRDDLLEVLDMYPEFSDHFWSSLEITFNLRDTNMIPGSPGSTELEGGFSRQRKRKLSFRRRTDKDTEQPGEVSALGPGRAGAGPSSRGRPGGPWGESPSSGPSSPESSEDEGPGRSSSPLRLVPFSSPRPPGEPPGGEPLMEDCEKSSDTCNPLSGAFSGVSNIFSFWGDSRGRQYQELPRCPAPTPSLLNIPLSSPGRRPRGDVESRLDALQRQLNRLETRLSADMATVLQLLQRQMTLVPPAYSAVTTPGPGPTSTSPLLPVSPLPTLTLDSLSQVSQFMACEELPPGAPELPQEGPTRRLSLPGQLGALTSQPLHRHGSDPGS

The assay has as its target human ether-à-go-go-related gene (hERG) potassium channel (human, UniProt Q12809). Briefly: primary screen, population patch clamp on CHO cells stably expressing hERG.
As to `S=c1[nH]nc(CCc2ccc(Cl)cc2)o1`, the “hERG current change (%, negative = inhibition) at 10uM” value amounted to 4.23%.
For `COc1ccc(/C=C/C(=O)c2ccccn2)cc1` the value was 21.4%; for `CN(CC(=O)Nc1cccc(F)c1)C(=O)c1cccc(-n2cccc2)c1`, -27.6%; for `Cc1cc(C(=O)COC(=O)c2ccc(Cl)c(S(N)(=O)=O)c2)c(C)n1CC1CCCO1` (centres unmarked), -12.6%.
The figure for `C=CCn1c(O)c(/C(C)=N/N2CCCCC2)c(=O)[nH]c1=O` is 12.7%.
The figure for `C#CCOCCOCCOCCNc1nc(N2CCOCC2)nc(N2CCN(C(=O)CCCCCCCCCCNC(=O)[C@H](CO)n3cc(CCCCCN)nn3)CC2)n1` is 8.07%; for `Cc1ccc(C(=O)Nc2nnc(NC(=S)Nc3ccccc3)s2)cc1` it is 12.1%.
Take `COc1ccc(CN2CCN(S(=O)(=O)c3ccc(F)cc3)CC2)c(OC)c1OC.O=C(O)C(=O)O`: the “hERG current change (%, negative = inhibition) at 10uM” value was -23.4%.
For `N/C(=N\OC(=O)c1ccc(Cl)cc1)c1[nH]ncc1Br` the value was -7.78%; for `O=C(Nc1ccc(Br)cc1)c1cccc(S(=O)(=O)Nc2cnc3ccccc3c2)c1`, 8.99%; for `COc1ccc(C(=O)NC(=S)Nc2cccc(Cl)c2N2CCOCC2)cc1[N+](=O)[O-]`, 1.61%.
The figure for `FC(F)(F)c1cc(CCN2CCNC[C@H]2Cc2cccc3ccccc23)cc(C(F)(F)F)c1` is 1.75%; for `N/C(=N\OC(=O)CCCC(=O)O)c1ncc(C(F)(F)F)cc1Cl` it is 14.7%.
The figure for `CC(C)OCCCNC(=O)Cn1nc(-c2ccccc2)ccc1=O` is -9.86%; for `CC(C)CC(N=C1NC(C)(C)Cc2ccccc21)C(=O)O` (centres unmarked) it is 2.08%; for `C/C=C1\COC(C(=O)NCc2ccccc2)(C(F)(F)F)C=C1C=C1CCCCC1` (centres unmarked) it is 7.85%.
As to `CCN(CC)CCOC(=O)c1ccc(NC(=S)NC(=O)/C=C/c2ccco2)cc1`, the “hERG current change (%, negative = inhibition) at 10uM” value was -0.561%.
Take `Cc1cccc(N(CC(O)CON=C2c3ccccc3-c3ccccc32)S(C)(=O)=O)c1` (centres unmarked): the “hERG current change (%, negative = inhibition) at 10uM” value stood at 15.1%.
The figure for `O=C(Nc1ccc(OC(F)F)c(Cl)c1)Nc1ccc2c(c1)OCO2` is 25%; for `Cc1ccc(C(=O)NC(=S)NCC(=O)c2ccccc2)cc1` it is 9.51%; for `CCN(CC(=O)Nc1c(F)cccc1F)C(=O)C1Cc2ccccc2CN1S(=O)(=O)CC` (centres unmarked) it is -0.108%.
For `Cc1cccc(S(=O)(=O)N2CCN(Cc3ccc4c(c3)OCO4)CC2)c1` the value was -35.2%.
For `O=C(COC(=O)Cc1ccc(F)cc1)NC1CCCC1` the value was 4.84%; for `Cc1ccccc1N(C(=O)c1cccs1)c1nc2ccccc2s1`, 5.76%; for `CC(CCc1ccccc1)NC(=O)CSc1nc(N)cc(N)n1` (centres unmarked), -17.5%.
Regarding `O=c1cc(/N=C/c2coc3cc(Br)ccc3c2=O)[nH]c(=S)[nH]1`, the “hERG current change (%, negative = inhibition) at 10uM” value is 16.1%.
The figure for `Cc1ccc(CSCC(=O)N2CCCC2)cc1` is 14%; for `O=C(OCC(=O)N1CCCC1=O)c1nc(Cl)ccc1Cl` it is 5.78%; for `Cc1csc(NC(=O)c2nn(C)c(C)c2[N+](=O)[O-])n1` it is 11.4%.
In the case of `COc1cc(Nc2nc3ccc(Cl)cc3n3cnnc23)cc(OC)c1OC`, the “hERG current change (%, negative = inhibition) at 10uM” value turned out to be 19.4%.
The figure for `CC12CCC(C(=O)Nc3ccc(Br)cn3)(OC1=O)C2(C)C` (centres unmarked) is 7.13%.
For `CC(C)n1ncc(N2CCOCC2)c(Cl)c1=O`, the “hERG current change (%, negative = inhibition) at 10uM” value was 12%.
For `CN(CC(=O)Nc1ccccc1C(F)(F)F)Cc1c(O)ccc2ccccc12` the value was 9.21%.
For `C[C@H](NC(=O)C1CC(=O)N(c2ccc(F)cc2)C1)C(=O)N1CCCCC1` (some centres unmarked) the value was 8.53%; for `O=C(NCc1ccccc1)NC(=O)c1ccccc1F`, 10.9%; for `Cn1nc(-c2ccccn2)nc2c(=O)n(C)c(=O)nc1-2`, -3.6%.
For `CCc1nc(Sc2nc(C)cc(C)n2)c2oc3ccccc3c2n1` the value was -2.59%; for `COC(=O)COc1ccc(S(=O)(=O)Nc2ccc3c(c2)OCCO3)cc1Cl`, 2.19%.
Consider `C/C(=N\O)c1cc(Cl)ccc1O`, for which the “hERG current change (%, negative = inhibition) at 10uM” value was -2.28%.
The figure for `CN(C)c1ccc(/C=C(/NC(=O)c2ccccc2)C(=O)N/N=C/c2ccc([N+](=O)[O-])c(O)c2)cc1` is -19%; for `COc1ccc(C2=C(CN(C)C)C(c3ccccc3)c3ccccc3O2)cc1.Cl` (centres unmarked) it is 4.6%; for `O=C(NCCCn1ccnc1)/C(=C\c1ccccc1Cl)NC(=O)c1ccccc1` it is -41.2%.
The figure for `O=C(Nn1cnnc1)c1ccc(Cl)cc1` is 17.7%; for `CCCn1c(N)c(C(=O)CSc2nnc(-c3ccco3)n2Cc2ccccc2)c(=O)[nH]c1=O` it is 0.236%.
